Assay results taken from the supplement of paper PMC10441789.
The list shows a part of the results. Antibody binding of pooled human sera (four to six donors per pool; dilution not stated) to peptides of the Trypanosoma cruzi antigen TSSA on microarrays. Quantile-normalised fluorescence in arbitrary units, mean of duplicate arrays; higher = more binding. No active / inactive call. The uninfected pools are read here as the healthy donors of the same country. The strongest signals lie near the top of the scale (about 60,000).

How the values were obtained:
Assay in all cases: antibody binding signal (normalised fluorescence) (arbitrary fluorescence units); higher = stronger serum antibody binding to peptide
[1] = system: pooled sera of chronic Chagas disease patients, Bolivia
Procedure: (§1)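 Microarray of 15-residue peptides over residues 30-55 of Trypanosoma cruzi TSSAII, each with 1 to 10 substitutions at naturally variable positions, probed with one serum pool per country.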

[2] = system: pooled sera of chronic Chagas disease patients, Brazil
Procedure: as §1

[3] = system: pooled sera of chronic Chagas disease patients, Colombia
Procedure: as §1

[4] = system: pooled sera of chronic Chagas disease patients, Mexico
Procedure: as §1

[5] = system: pooled sera of chronic Chagas disease patients, USA
Procedure: as §1

[6] = system: pooled sera of uninfected people, Argentina
Procedure: as §1

[7] = system: pooled sera of uninfected people, Bolivia
Procedure: as §1

[8] = system: pooled sera of uninfected people, Brazil
Procedure: as §1

[9] = system: pooled sera of uninfected people, Colombia
Procedure: as §1

[10] = system: pooled sera of uninfected people, Mexico
Procedure: as §1

[11] = system: pooled sera of uninfected people, USA
Procedure: as §1

SGKDKKAATGGTPSQ
antibody binding signal [1]: 269 | antibody binding signal [2]: 320 | antibody binding signal [3]: 793 | antibody binding signal [4]: 813 | antibody binding signal [5]: 917 | antibody binding signal [6]: 152 | antibody binding signal [7]: 80.4 | antibody binding signal [8]: 138 | antibody binding signal [9]: 313 | antibody binding signal [10]: 82.6 | antibody binding signal [11]: 129

ENKPAAGGAPSPPGA
antibody binding signal [1]: 2640 | antibody binding signal [2]: 4220 | antibody binding signal [3]: 1660 | antibody binding signal [4]: 350 | antibody binding signal [5]: 1220 | antibody binding signal [6]: 318 | antibody binding signal [7]: 331 | antibody binding signal [8]: 246 | antibody binding signal [9]: 193 | antibody binding signal [10]: 149 | antibody binding signal [11]: 249

SGTDKKTATGGAPSP
antibody binding signal [1]: 331 | antibody binding signal [2]: 1900 | antibody binding signal [3]: 6900 | antibody binding signal [4]: 1330 | antibody binding signal [5]: 1540 | antibody binding signal [6]: 399 | antibody binding signal [7]: 207 | antibody binding signal [8]: 118 | antibody binding signal [9]: 164 | antibody binding signal [10]: 424 | antibody binding signal [11]: 195

STPPSGTDNKAATGG
antibody binding signal [1]: 39200 | antibody binding signal [2]: 44800 | antibody binding signal [3]: 2680 | antibody binding signal [4]: 31000 | antibody binding signal [5]: 27200 | antibody binding signal [6]: 1060 | antibody binding signal [7]: 775 | antibody binding signal [8]: 1460 | antibody binding signal [9]: 219 | antibody binding signal [10]: 301 | antibody binding signal [11]: 250

KDNKAAAGGTPSPSG
antibody binding signal [1]: 219 | antibody binding signal [2]: 214 | antibody binding signal [3]: 1170 | antibody binding signal [4]: 169 | antibody binding signal [5]: 896 | antibody binding signal [6]: 168 | antibody binding signal [7]: 1320 | antibody binding signal [8]: 416 | antibody binding signal [9]: 201 | antibody binding signal [10]: 82.8 | antibody binding signal [11]: 109

SGKDKKTATGGTPSP
antibody binding signal [1]: 400 | antibody binding signal [2]: 354 | antibody binding signal [3]: 1150 | antibody binding signal [4]: 542 | antibody binding signal [5]: 1680 | antibody binding signal [6]: 175 | antibody binding signal [7]: 77 | antibody binding signal [8]: 118 | antibody binding signal [9]: 195 | antibody binding signal [10]: 73 | antibody binding signal [11]: 103

EKKAAAGEAPSQPGA
antibody binding signal [1]: 7650 | antibody binding signal [2]: 39500 | antibody binding signal [3]: 866 | antibody binding signal [4]: 301 | antibody binding signal [5]: 7140 | antibody binding signal [6]: 154 | antibody binding signal [7]: 1150 | antibody binding signal [8]: 122 | antibody binding signal [9]: 129 | antibody binding signal [10]: 252 | antibody binding signal [11]: 1110

GTDNKPAAGEAPSPP
antibody binding signal [1]: 801 | antibody binding signal [2]: 42600 | antibody binding signal [3]: 962 | antibody binding signal [4]: 214 | antibody binding signal [5]: 15700 | antibody binding signal [6]: 138 | antibody binding signal [7]: 591 | antibody binding signal [8]: 294 | antibody binding signal [9]: 110 | antibody binding signal [10]: 305 | antibody binding signal [11]: 108

PPSGKEKKAATGETP
antibody binding signal [1]: 627 | antibody binding signal [2]: 2680 | antibody binding signal [3]: 2590 | antibody binding signal [4]: 4690 | antibody binding signal [5]: 8070 | antibody binding signal [6]: 689 | antibody binding signal [7]: 649 | antibody binding signal [8]: 111 | antibody binding signal [9]: 441 | antibody binding signal [10]: 85.1 | antibody binding signal [11]: 223

GKEKKAATGGAPSPS
antibody binding signal [1]: 335 | antibody binding signal [2]: 508 | antibody binding signal [3]: 1580 | antibody binding signal [4]: 2330 | antibody binding signal [5]: 2350 | antibody binding signal [6]: 238 | antibody binding signal [7]: 301 | antibody binding signal [8]: 96.6 | antibody binding signal [9]: 349 | antibody binding signal [10]: 112 | antibody binding signal [11]: 101

GKDNKPATGGTPSQS
antibody binding signal [1]: 260 | antibody binding signal [2]: 571 | antibody binding signal [3]: 899 | antibody binding signal [4]: 1370 | antibody binding signal [5]: 1230 | antibody binding signal [6]: 282 | antibody binding signal [7]: 578 | antibody binding signal [8]: 223 | antibody binding signal [9]: 151 | antibody binding signal [10]: 201 | antibody binding signal [11]: 120

SGTDKKAAAGGAPSQ
antibody binding signal [1]: 220 | antibody binding signal [2]: 1230 | antibody binding signal [3]: 9530 | antibody binding signal [4]: 1080 | antibody binding signal [5]: 765 | antibody binding signal [6]: 193 | antibody binding signal [7]: 132 | antibody binding signal [8]: 178 | antibody binding signal [9]: 206 | antibody binding signal [10]: 510 | antibody binding signal [11]: 177

NKAATGETPSQSGAS
antibody binding signal [1]: 8080 | antibody binding signal [2]: 28200 | antibody binding signal [3]: 196 | antibody binding signal [4]: 199 | antibody binding signal [5]: 11400 | antibody binding signal [6]: 500 | antibody binding signal [7]: 844 | antibody binding signal [8]: 440 | antibody binding signal [9]: 302 | antibody binding signal [10]: 708 | antibody binding signal [11]: 1040
